According to PubChem BioAssay AID624296 (National Center for Advancing Translational Sciences (NCATS), 2012):
The whole screen tested about 350,000 compounds, of which about 9,900 (2.8%) were called active. The inconclusive results got no clear call from the source; some entries with a clear call stand among them for comparison. The call rests on the fitted dose curve; in most records, active means well fitted activation curve with a large enough effect; inconclusive means small, poorly fitted or top-dose-only effect; inactive means no such curve, though single readings can be large or run the other way. Potencies of inconclusive entries are left out as doubtful fits.
Potency means the concentration at half of the fitted maximal effect; tags describe the fitted curve by direction and shape.

Assay: A quantitative high throughput screen for small molecules that induce DNA re-replication in MCF 10a normal breast cells. Further: nearly all actives have a fitted effect of over 50% in size. On activity, positive = re-replication: % of control where 0% means no effect.
Details: MCF 10A DNA re-replication, Hoechst nuclear intensity, 48 h; activity, positive = re-replication: at 46.1 µM (top of the series)
In the case of COc1cc2c(cc1OC)CN(c1nc(-c3cccnc3)nc3ccccc13)CC2, the Potency was inconclusive [activator, single point].
For COc1ccccc1N1CCN(C(=O)c2c(-c3c(F)cccc3Cl)noc2C)CC1, the Potency was inconclusive [activator, partial curve, poor fit].
With CC(=O)Nc1ccc(S(=O)(=O)N[C@@H](C)C(=O)OCC(=O)c2ccc(C)cc2)cc1 the Potency was “inactive”.
In the case of O=C(NNC(=O)C1CCN(S(=O)(=O)c2cccc(C(F)(F)F)c2)CC1)C1CC1, the Potency was “inactive”.
In the case of CC(=O)c1cccc(CN2CCC(C(=O)Nc3ccc(-c4cccc(C)c4)cc3)CC2)c1, the Potency was inconclusive [activator, single point].
In the case of CS/C(=C/[N+](=O)[O-])Nc1cccc2c1C(C)CC2(C)C (stereo not drawn), the Potency was inconclusive [activator, full curve, poor fit].
With NCCSc1c(-c2ccccc2)[nH]c2ccccc12 the Potency was “inactive”.
In the case of Cc1c(Br)cc(C(=O)OC2CCN(C)CC2)c(C)c1C, the Potency was inconclusive [activator, single point].
In the case of Cc1ccc(C)n1-c1ccc(N2CCOCC2)c(Br)c1, the Potency was inconclusive [activator, single point].
With Cc1cc(OCc2ccccc2)ccc1/C(O)=C1/C(=O)C(=O)N(Cc2cccnc2)C1c1ccncc1 (stereo not drawn) the Potency was inconclusive [activator, single point].
In the case of Cc1ccc(C(=O)N/C(=C/c2cccs2)C(=O)NCc2ccco2)cc1, the Potency was “inactive”.
With Nc1nc(N)c(-c2cccc(C(F)(F)F)c2)c(Cc2cccc(C(F)(F)F)c2)n1 the Potency was inconclusive [activator, full curve, poor fit].
In the case of Cc1ccc(/C=N/NC(=O)c2c(-c3ccccc3)noc2C)o1, the Potency was “inactive”.
For CCN(C(=O)COC(=O)CCOc1cc(C)ccc1C)c1c(N)n(Cc2ccccc2)c(=O)[nH]c1=O, the Potency was inconclusive [activator, single point].
With Cc1c(Cl)cccc1NC(=O)Cn1nc(C)n2cccc2c1=O the Potency was “inactive”.
For CCOc1cccc(C(=O)Nc2ccc(N(CC)CC)cc2)c1, the Potency was active: 18.4 µM.
In the case of Cc1cc2c(cc1[N+](=O)[O-])NC(CNC(C)C)CC2 (stereo not drawn), the Potency was “inactive”.
In the case of CCC(C)Sc1ccc(-c2nc3ccc(Cl)cn3c2NCc2ccccc2)cc1 (stereo not drawn), the Potency was active: 11.6 µM.
With Cc1cc(N2CCOCC2)ccc1/C=C1\NC(=O)N(Cc2ccccc2)C1=O the Potency was inconclusive [activator, partial curve].
With O=C(C[C@H]1C[C@H](C(=O)N2CCOCC2)[C@@]2(CCC3CCCC3)c3[nH]c4cc(-c5ccco5)ccc4c3CCN2C1=O)NCCc1ccccn1 the Potency was inconclusive [activator, single point].
For O=c1oc2ccc3ccccc3c2cc1-c1nc2ccccc2o1, the Potency was inconclusive [activator, full curve, poor fit].
For COc1cc(-c2nnc(NC(=O)CCS(=O)(=O)c3ccccc3)o2)cc(OC)c1OC, the Potency was active: 18.4 µM.
In the case of O=C(NCCSc1ccccc1)c1ccccc1Cl, the Potency was inconclusive [activator, full curve, poor fit].
With CC(=O)NC1=NN(C(C)=O)C(C)(CCS(=O)(=O)c2ccc(Cl)c(Cl)c2)S1 (stereo not drawn) the Potency was “inactive”.
With COc1ccc(NC(=O)C2CCN(S(=O)(=O)c3ccc4c(c3)CC(C)N4C(C)=O)CC2)c(OC)c1 (stereo not drawn) the Potency was inconclusive [activator, single point].
For COc1ccc(C(=O)C[n+]2ccc(N(C)C)cc2)cc1, the Potency was inconclusive [activator, single point].
In the case of COc1ccc(-c2csc(=Nc3ccccc3)n2CCO)cc1, the Potency was inconclusive [activator, single point].
For O=C(CNC(=O)c1cccc(Br)c1)N/N=C/c1cccs1, the Potency was “inactive”.
For COc1ccc(CNS(=O)(=O)c2ccc(N3CCCC3)cc2Br)cc1, the Potency was “inactive”.
In the case of C/C=C(/C)C(=O)O[C@@H]1[C@H](OC(=O)C=C(C)C)c2c(ccc3ccc(=O)oc23)OC1(C)C, the Potency was inconclusive [activator, single point].
In the case of COc1cccc(C(C(=O)NC2CCCCC2)N(C(=O)c2cccs2)c2ccc3c(c2)OCO3)c1 (stereo not drawn), the Potency was inconclusive [activator, full curve, poor fit].
In the case of O=[N+]([O-])c1cccc(COc2ccccc2CN2CCCCC2)c1, the Potency was “inactive”.
For CC1CCN(S(=O)(=O)c2cnc(Cl)c(Br)c2)CC1, the Potency was inconclusive [activator, partial curve].
In the case of COc1ccc(CCNC(=O)C(=O)NCC2OCCN2S(=O)(=O)c2ccc(OC)c(OC)c2)cc1OC (stereo not drawn), the Potency was “inactive”.
For Cc1ccc(NC(=O)Cn2sc3nc(C)cc(C)c3c2=O)c(Cl)c1, the Potency was active: 4.61 µM.
With CCN1CCc2c(sc(NC(=O)Nc3ccc(Cl)c(Cl)c3)c2C(N)=O)C1 the Potency was active: 9.2 µM.
In the case of CCCc1cc(=S)n2c([nH]c3ccccc32)c1C#N, the Potency was inconclusive [activator, full curve, poor fit].
With Cc1cccc(NC(=O)CSc2nc3[nH]ncc3c(=O)n2-c2ccccc2)c1 the activity, positive = re-replication was inconclusive: 103% [activator].
In the case of Oc1ccccc1/C=N/NC(=S)NCCc1ccccc1, the Potency was inconclusive [activator, single point].
With O=C1c2ccccc2C(=O)N1CCCCNc1ccccc1 the Potency was “inactive”.
With COc1ccc(C2(C)NC(=O)N(CC(=O)Nc3ccc(C)cc3Br)C2=O)cc1OC (stereo not drawn) the Potency was “inactive”.
In the case of O=C(CCNC(=O)c1ccc(Br)cc1)NC1CCCc2ccccc21 (stereo not drawn), the Potency was inconclusive [activator, partial curve].
With COc1ccc(-c2csc(NC(=O)CSc3n[nH]c(C)n3)n2)cc1 the Potency was “inactive”.
For Cc1cc(C)cc(NC(=S)Nc2cccc3cnccc23)c1, the Potency was inconclusive [activator, single point].
With Oc1ccc(-c2cn3c(n2)SCC3)cc1 the Potency was “inactive”.
With O=C(CCC(=O)N(CC(=O)NC1CCCC1)C1CCCCC1)Nc1ccccn1 the Potency was “inactive”.
For CCOC(=O)NC(=O)CSc1nc(C)cc(C(F)(F)F)c1C#N, the Potency was “inactive”.
With O=[N+]([O-])c1cc(/C=N\O)ccc1Oc1ccc(F)cc1 the Potency was “inactive”.
In the case of COc1ccc(C(=O)N/C(=C\c2cn(S(=O)(=O)N(C)C)c3ccccc23)C(=O)N2CCN(C)CC2)cc1, the Potency was “inactive”.
In the case of COc1ccc(S(=O)(=O)Nc2ccc(F)cc2)cc1N(C)S(=O)(=O)c1ccc(Cl)cc1, the Potency was inconclusive [activator, single point].
With O=C(NNC(=O)c1cc(OCC(F)(F)F)ccc1OCC(F)(F)F)c1ccc(Cl)c(Cl)c1 the Potency was inconclusive [activator, single point].
With CN(C(=S)Nc1ccc(Oc2ccccc2)cc1)C1CCCCC1 the Potency was inconclusive [activator, single point].
In the case of CC(C)c1cc2c(c(O)c1O)[C@@]13CCCC(C)(C)C1CC2OC3=O (stereo partly drawn), the Potency was inconclusive [activator, full curve].
In the case of Cc1cc(C)n2nc(C(=O)OCCOc3ccc(F)cc3)nc2n1, the Potency was “inactive”.
For O=C(Cc1ccc2ccccc2c1)NC(Cc1ccccc1)C(=O)O (stereo not drawn), the Potency was inconclusive [activator, partial curve, poor fit].
For Cc1ccc(S(=O)(=O)Nc2cc(C)on2)cc1, the Potency was “inactive”.
In the case of C=CCn1c(C)cc(C(=O)COC(=O)C2CC(=O)N(Cc3ccccc3)C2)c1C (stereo not drawn), the Potency was inconclusive [activator, single point].
With CCC(Oc1ccc(F)cc1)C(=O)N1CCCCCCC1 (stereo not drawn) the Potency was “inactive”.
In the case of O=C(NCCN1C(=O)S/C(=C\c2ccccc2Cl)C1=O)C1=COCCO1, the Potency was active: 7.31 µM.
In the case of CN(C(=O)CN1C(=O)c2cccc(N)c2C1=O)C1CCCCC1, the Potency was “inactive”.
In the case of CC1CCCCC1NC(=O)CSc1nnnn1C (stereo not drawn), the Potency was inconclusive [activator, single point].
In the case of COc1cccc(-c2nc(CCl)cs2)c1OC, the Potency was inconclusive [activator, full curve, poor fit].
For COC(=O)C1CSc2[nH]c(=O)sc2C1c1ccc(OC)c(OC)c1 (stereo not drawn), the Potency was inconclusive [activator, single point].
With COc1ccc(OC(C)C(=O)NCCC2=CCCCC2)cc1 (stereo not drawn) the Potency was inconclusive [activator, single point].
In the case of O=C(CSc1ccc2nnc(-c3ccccn3)n2n1)N1CCN(c2ccccc2)CC1, the Potency was “inactive”.
With O=C(CC1Sc2ccccc2NC1=O)NNc1cc(Cl)ccc1Cl (stereo not drawn) the Potency was inconclusive [activator, single point].
With COc1ccc(S(=O)(=O)Cc2ccc(C(=O)N3CCN(c4cc(C)ccc4C)CC3)o2)cc1 the Potency was inconclusive [activator, single point].
For Cc1cc(C)c2cc(C(=O)N3CCC(Cc4ccccc4)CC3)[nH]c2c1, the Potency was inconclusive [activator, single point].
In the case of Cc1ccc(C)c(CSc2nnc(-c3cccs3)n2Cc2ccco2)c1, the Potency was active: 20.6 µM.
With O=C(NCCC(=O)N1CCCC1)c1ccccc1Cl the Potency was “inactive”.
In the case of COc1ccc(N/C=C\C(=O)c2ccc(C)cc2)cc1OC, the Potency was inconclusive [activator, single point].
For C=CC[C@H](CC(=O)N[C@H](CO)Cc1ccccc1)C(=O)N[C@@H](COC(=O)[C@H](CC=C)CC(=O)OC(C)(C)C)Cc1c[nH]c2ccccc12, the Potency was “inactive”.
For CCCC[C@@H](CNC)NC[C@H](Cc1ccc(O)cc1)NCCc1ccc(OCC)cc1, the Potency was inconclusive [activator, partial curve, poor fit].
